Laboratory results as given in US20250223353A1 (BIOTHEUS, published 2025).

T1: cynomolgus PVRIG overexpressed on CHO cells (cynomolgus, UniProt A0A2K5WVV8 1-322)
T1 construct: whole, on cells; also called CHO-cynoPVRIG cells
T1 sequence: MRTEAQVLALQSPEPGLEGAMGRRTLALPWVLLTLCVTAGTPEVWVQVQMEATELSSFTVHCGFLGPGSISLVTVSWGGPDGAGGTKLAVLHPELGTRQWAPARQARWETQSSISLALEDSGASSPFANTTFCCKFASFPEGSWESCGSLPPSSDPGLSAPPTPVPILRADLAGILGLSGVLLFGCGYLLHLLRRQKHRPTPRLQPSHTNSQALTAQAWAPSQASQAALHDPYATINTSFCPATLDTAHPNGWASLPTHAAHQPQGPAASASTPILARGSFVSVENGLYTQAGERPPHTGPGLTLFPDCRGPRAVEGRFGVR

T2: human PVRIG on the cell surface (human, UniProt Q6DKI7 41-326)
T2 construct: whole, on cells; also called CHO-huPVRIG cells; human PVRIG protein overexpressed on the surface of CHO cells
T2 sequence (looked up): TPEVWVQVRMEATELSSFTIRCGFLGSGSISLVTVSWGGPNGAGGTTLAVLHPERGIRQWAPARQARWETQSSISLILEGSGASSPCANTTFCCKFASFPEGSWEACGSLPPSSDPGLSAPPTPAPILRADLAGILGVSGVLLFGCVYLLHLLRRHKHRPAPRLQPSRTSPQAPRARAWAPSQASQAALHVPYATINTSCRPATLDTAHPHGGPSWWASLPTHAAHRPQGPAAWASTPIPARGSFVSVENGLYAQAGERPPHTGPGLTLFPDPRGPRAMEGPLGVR

T3: human PVRIG protein with mouse IgG2a Fc tag (human, UniProt Q6DKI7 41-171, limits assumed)
T3 construct: not shown: mouse IgG2a Fc tag
T3 sequence (looked up): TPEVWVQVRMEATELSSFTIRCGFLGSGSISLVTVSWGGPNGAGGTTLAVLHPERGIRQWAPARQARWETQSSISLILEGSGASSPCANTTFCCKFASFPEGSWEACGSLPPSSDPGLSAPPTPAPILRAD


Key:
[1] = target: T1, cynomolgus PVRIG overexpressed on CHO …; assay: flow cytometry on CHO-cynoPVRIG cells
[2] = target: T2, human PVRIG on the cell surface; assay: flow cytometry on CHO-huPVRIG cells
[3] = target: T3, human PVRIG protein with mouse IgG2a Fc …; assay: flow cytometry competition: human PVRIG-mouse IgG2a Fc (1 ug/mL) binding to CHO-huCD112 cells
[4] = target: T4, mouse PVRIG overexpressed on CHO cells (mouse); assay: flow cytometry on CHO-muPVRIG cells
T4 construct: whole, on cells; also called CHO-muPVRIG cells

EC50 [1] [nM]	EC50 [2] [nM]	IC50 [3] [nM]	EC50 [4] [nM]	Binder
1.96	2.51	1.23	6.47	ADI-56127-G1 (antibody, human IgG1, kappa, Wild-type human IgG1 / kappa, expressed in HEK293) heavy: QVQLVQSGAEVKKPGSSVKVSCKASGGTESVDAISWVRQAPGQGLEWMGDIIPFFDTDYAQKFQGRVTITADESTSTAYMELSSLRSEDTAVYYCAREGGTSWTHFFDLWGRGTLVTVSS[human IgG1 constant region skipped] light: [about 200 residues skipped]
1.98	2.44	1.36	5.38	ADI-56127-G1LALA (antibody, human IgG1, kappa) heavy: QVQLVQSGAEVKKPGSSVKVSCKASGGTESVDAISWVRQAPGQGLEWMGDIIPFFDTDYAQKFQGRVTITADESTSTAYMELSSLRSEDTAVYYCAREGGTSWTHFFDLWGRGTLVTVSS[human IgG1 constant region with changes skipped] light: [about 200 residues skipped]
2.36	2.73	1	–	ADI-56204-G1 (antibody, human IgG1, kappa, Wild-type human IgG1 / kappa, expressed in HEK293) heavy: QVQLVQSGAEVKKPGASVKVSCKASGYTFTHYGIYWVRQAPGQGLEWMGHIYAYSGDTDYAQKLQGRVTMTTDTSTSTAYMELRSLRSDDTAVYYCARGSPTYEHFNWFDPWGQGTLVTVSS[human IgG1 constant region skipped] light: DIQMTQSPSSLSASVGDRVTITCQASDDISDYLNWYQQKPGKAPKLLIYDASSLHTGVPSRFSGSGSGTDFTFTISSLQPEDIATYYCQQYGNLPITFGGGTKVEIKRTVAAPSVFIFPPSDEQLKSGTASVVCLLNNFYPREAKVQWKVDNALQSGNSQESVTEQDSKDSTYSLSSTLTLSKADYEKHKVYACEVTHQGLSSPVTKSFNRGEC
1.97	2.5	0.991	–	ADI-56204-G1LALA (antibody, human IgG1, kappa) heavy: QVQLVQSGAEVKKPGASVKVSCKASGYTFTHYGIYWVRQAPGQGLEWMGHIYAYSGDTDYAQKLQGRVTMTTDTSTSTAYMELRSLRSDDTAVYYCARGSPTYEHFNWFDPWGQGTLVTVSS[human IgG1 constant region with changes skipped] light: DIQMTQSPSSLSASVGDRVTITCQASDDISDYLNWYQQKPGKAPKLLIYDASSLHTGVPSRFSGSGSGTDFTFTISSLQPEDIATYYCQQYGNLPITFGGGTKVEIKRTVAAPSVFIFPPSDEQLKSGTASVVCLLNNFYPREAKVQWKVDNALQSGNSQESVTEQDSKDSTYSLSSTLTLSKADYEKHKVYACEVTHQGLSSPVTKSFNRGEC
